Values joined by “and” are separate entries in the source; they are usually repeats but may differ in a detail not shown here. Identical values can stand only once. Hit rate of the full screen: of about 48,000 compounds, about 1,200 (2.5%) were called active. Not shown: some 2% with an inconclusive outcome.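 Rule for the calls: active = activation of at least 60% and not above a set upper limit (about 1 call in 100 departs from these limits); inconclusive = activation of 40% to 60%, or above that upper limit; inactive = activation under 40%.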 Some of the results follow.

Chain of UniProt O75388 (O75388 whole entry, looked up): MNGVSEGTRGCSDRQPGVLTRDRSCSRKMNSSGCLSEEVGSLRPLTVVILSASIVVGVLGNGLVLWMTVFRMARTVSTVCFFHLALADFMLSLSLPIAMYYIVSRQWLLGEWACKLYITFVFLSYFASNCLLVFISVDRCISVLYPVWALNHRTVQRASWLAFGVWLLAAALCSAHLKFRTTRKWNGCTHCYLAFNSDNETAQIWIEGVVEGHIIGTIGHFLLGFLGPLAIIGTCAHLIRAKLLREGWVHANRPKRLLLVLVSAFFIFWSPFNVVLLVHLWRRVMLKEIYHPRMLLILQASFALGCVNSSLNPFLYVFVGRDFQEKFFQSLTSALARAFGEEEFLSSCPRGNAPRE

This experiment has as its target Probable G-protein coupled receptor 32 (Homo sapiens) (UniProt O75388). Briefly: qHTS for Agonists of Human Resolvin D1 Receptor DRV1. Note: 0% is about no effect. The conditions noted are these: CHO-K1 GPR32 beta-arrestin PathHunter luminescence, 90 min; at 76.9 µM; stronger effect = higher value; zero percent set by DMSO-only wells. The method in brief:
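Step 1: seed CHO-K1 GPR32 beta-arrestin cells, 2,500/well, overnight at 37 °C. Step 2: add compounds, 90 min at 37 °C. Step 3: detection reagent, 1 h ambient, then luminescence.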
(In general: Quantitative high-throughput screening tests each substance at several concentrations.)
`CCCCN(CC)C(=O)Cn1ncc2c3ccccc3n(CCC)c2c1=O`: the activation was inactive: -14.3%.
The figure for `COc1ccccc1NC(=O)CSC1=Nc2ccccc2C2=NC(CCC(=O)NCc3cccs3)C(=O)N12` (stereo not given) is inactive: -32.3%; for `CCOc1cccc(C(=O)N(Cc2ccc(CC)cc2)C2CCS(=O)(=O)C2)c1` (stereo not given) it is inactive: -7.21%.
The figure for `CCCNC(=O)Cn1nc(-c2ccc(F)cc2)c2cnc3ccc(F)cc3c21` is inactive: 7.42%.
With `COc1ccc(/C=C/C(=O)Nc2ccccc2C(=O)O)cc1OC`, the activation was inactive: 7.33%.
The figure for `Cn1c(=O)[nH]c2cc(-c3noc(-c4cccc(Cl)c4)n3)ccc21` is inactive: -7.93%; for `CCC(C)NC(=O)c1cccc(NC(=O)c2nsc3ccccc23)c1` (stereo not given) it is inactive: -9.44%.
The figure for `CCCCCCOc1ccc(C2C(=O)N(C3CCCCC3)CC(=O)N2CCCC)cc1` (stereo not given) is inactive: -22.7%; for `CCOc1cccc(C(=O)Nc2cc(-c3ccc(C)cc3)no2)c1` it is inactive: 27.3%; for `O=C(CN1C(=O)CCc2cc(S(=O)(=O)N3CCOCC3)ccc21)Nc1cccc(C(F)(F)F)c1` it is inactive: -12%.
For `Cc1ccc2c(=O)cc(C(=O)Nc3sc4c(c3C(=O)NCc3ccccc3)CCCC4)oc2c1C`, the activation was inactive: 12.2%.
The figure for `CN(C)c1ccc(CNC(=O)CCS(=O)(=O)c2ccc3c(c2)oc(=O)n3C)cc1` is inactive: -5.4%.
The figure for `CCCCN1C(C(=O)c2ccccc2)=C(OC(C)=O)c2ccccc2S1(=O)=O` is inactive: -57.9%; for `Cc1noc(Cn2c(=O)c3cc4c(cc3n(CC(=O)Nc3ccccc3Br)c2=O)OCO4)n1` it is inactive: -18%; for `O=C(Nc1sc2c(c1C(=O)N1CCCCC1)CCCC2)c1ccccc1Cl` it is inactive: -17.8%.
As for `COc1ccc(NC(=O)CNC(=O)Cn2c(C)cc3ccccc3c2=O)cc1OC`, the figure is inactive: 36.1%.
As for `Cc1ccccc1CNC(=O)CN(c1cccc(C)c1C)S(C)(=O)=O`, the activation is inactive: -7.58%.
As for `CCCCN(CCCC)C1=C(C(=O)c2ccccc2)N(C)S(=O)(=O)c2ccccc21`, the figure is inactive: -96.3%; as for `CCCS(=O)(=O)N1CCCC(C(=O)NCCOC)C1` (stereo not given), inactive: -7.06%; as for `CCOc1ccc(NCc2cccn2-c2nnc(N3CCC(C(=O)NCCOC)CC3)s2)cc1`, inactive: -26.8%.
The figure for `C=C(C)Cn1c(=O)c2c(nc3n2CCN3c2ccc(F)cc2)n(C)c1=O` is inactive: -8.27%; for `Cc1ccccc1Nc1cc(C(=O)NCc2cccs2)c2ccccc2n1` it is inactive: -6.83%.
The figure for `CCOc1ccc(-c2nc(Cn3ccn4nc(-c5ccc(OCC)c(Cl)c5)cc4c3=O)c(C)o2)cc1` is inactive: -0.955%; for `COc1ccccc1/C=C/c1nc(C#N)c(NCCc2ccccc2)o1` it is inactive: -22.8%.
As to `COc1ccc(CNS(=O)(=O)c2ccc(-c3cnc(C4CC4)o3)cc2)cc1`, the activation is inactive: -11.7%.
The figure for `CCOc1ccc(N(CC)S(=O)(=O)N2CCCC(C(=O)Nc3cc(Cl)ccc3OC)C2)cc1` (stereo not given) is inactive: -11.7%; for `Cc1cccc(OCCn2c(SCC(=O)O)nc3ccccc32)c1` it is inactive: 39.6%.
On to `COc1ccc(C)cc1N(C)C(=O)c1c2c(nc3ccccc13)C(=O)N(C1CCCCC1)C2`, for which the activation is inactive: -9.64%.
As for `COc1ccc(Nc2ncc(C(=O)N3CCN(c4ccc(F)cc4)CC3)c3ccccc23)cc1`, the activation was inactive: -7.04%.
With `CCOc1ccc(CNS(=O)(=O)c2ccc(-c3coc(C)n3)cc2)cc1`, the activation is inactive: -11.5%.
On to `COc1ccc(N2CCN(CCCNC(=O)Cn3c(-c4cccs4)cc4ccccc43)CC2)cc1`, for which the activation is inactive: -16.5%.
Regarding `CC1(C)C(=O)N(CC(=O)Nc2ccc(Br)cc2F)c2ccccc21`, the activation was inactive: 48.7%.
`COc1ccc2nc(N(Cc3cccnc3)C(=O)C3CCCCC3)sc2c1`: the activation was inactive: -23.3%.
The figure for `COc1cccc(C2C(C(=O)Nc3ccc(C)cc3C)=C(C)Nc3nc4ccccc4n32)c1OC` (stereo not given) is inactive: -13%; for `CCOC(=O)c1cc(S(=O)(=O)N2CCN(c3ccccc3F)CC2)[nH]n1` it is inactive: -4.78%.
As for `Cc1nc2ccc(S(=O)(=O)N(C)CC(=O)Nc3cccc(C(F)(F)F)c3)cc2s1`, the figure is inactive: 10.1%.
The figure for `CCCCN(CC)CCCNC(=O)Nc1sc2nc3n(c(=O)c2c1C)CCC(C)CC3` (stereo not given) is inactive: -3.68%; for `CC(NC(=O)C1CCN(c2nc3ccccc3nc2C(F)(F)F)CC1)c1ccccc1` (stereo not given) it is inactive: 4.49%.
For the molecule `CCCCNC(=O)c1cccc(-n2c(C)nc3cccnc32)c1`, the activation was inactive: -0.114%.
As for `Fc1ccc2c(c1)-c1nc(-c3ccccc3)cc(-c3ccccc3)c1CO2`, the figure is inactive: 37.5%.
The figure for `Cc1c(NC(=O)Nc2ccccc2C(F)(F)F)sc2nc3n(c(=O)c12)CCC(C)CC3` (stereo not given) is inactive: -3.24%.
Consider `CCOc1cc(C(=O)N2CCn3c4c(c5cc(C)ccc53)CCCC42)cc(OCC)c1OCC` (stereo not given), for which the activation was inactive: -7.57%.
As for `COc1ccc(N(C(=O)c2cccc(C)c2)S(=O)(=O)c2ccc(Cl)cc2)cc1`, the figure is inactive: -0.276%.
The figure for `CC(C)CCNC(=O)c1cnc2sc(N3CCCCC3)nn2c1=O` is inactive: 48.5%; for `Cc1ccc(Cl)cc1N(C)C(=O)c1cn(C2CCCCC2)c(=O)c2c1c1ccccc1n2C` it is inactive: -1.5%; for `CC(=O)C1=C(c2ccc(Cl)cc2)N(C(C)=O)n2c(nnc2C2CCCCC2)S1` it is inactive: -19.5%.
As for `Oc1ccc(/C=C/c2cc(O)cc(O)c2)cc1`, the figure is inactive: -4.27% and inactive: -1.15%; as for `CCN(Cc1ccccc1)S(=O)(=O)c1ccc2c(c1)CC(C)N2C(=O)C1CCC1` (stereo not given), inactive: -6.13%.
For the molecule `Cc1ccc(N(CC(=O)Nc2cccc(Cl)c2)S(=O)(=O)c2cccs2)cc1`, the activation is inactive: -15.4%.
The figure for `O=c1c2oc3ccccc3c2n(Cc2ccccc2F)c(=O)n1Cc1ccccc1` is inactive: -4.56%; for `Cc1ccc2onc(CC(=O)Nc3ccc(C(C)C)cc3)c2c1` it is inactive: 6.01%; for `Cc1ccc2c(c1)N(CCC(=O)NCc1ccccc1Cl)C(=O)CO2` it is inactive: -7.42%.
As for `COc1cccc(CNC(=O)c2cc3c(=O)oc4ccc(C)cc4c3s2)c1`, the figure is inactive: 3.01%.
As for `CC(=O)N1CCC(N(Cc2ccc(C)o2)C(=O)Nc2ccc(C)cc2)CC1`, the figure is inactive: -3.09%.
Regarding `COc1ccc(-c2nnc(SCc3cccc(Cl)c3)o2)cc1`, the activation was inactive: -2.59%.
As for `Cn1c(=O)[nH]c(=O)c2c1nc(NCCc1ccccc1)n2Cc1ccc(F)cc1`, the figure is inactive: -1.91%; as for `CCOc1ccc(OCC)c(NS(=O)(=O)c2ccc(-c3coc(C)n3)cc2)c1`, inactive: 3.22%.
As for `Cc1cc(NC(=O)Nc2nnc(N(C)Cc3ccccc3)s2)ccc1Br`, the figure is inactive: -13.4%; as for `Cc1ccc(O)c(NC(=O)c2cc(-c3ccccc3O)no2)c1`, inactive: -10.3%; as for `Cn1cc(S(=O)(=O)N2CCOCC2)cc1C(=O)Nc1ccc(Cl)c(C(F)(F)F)c1`, inactive: 13.3%.
The figure for `COc1cc(NC(=O)c2cn(C3CCCC3)c(=O)c3c2c2ccccc2n3C)cc(OC)c1OC` is inactive: 4.11%.
For `Cn1cnc2c(=O)oc3ccc(S(=O)(=O)Nc4ccc(F)cc4)cc3c21`, the activation is inactive: 1.58%.
Consider `CCOc1ccc2nc(NC(=O)c3nc(SC)ncc3Cl)sc2c1`, for which the activation is inactive: 11.1%.
As for `CCOc1ccccc1NC(=O)Cc1noc2ccc(C)cc12`, the figure is inactive: 1.45%; as for `COc1ccc(CNCCC(c2ccccc2)c2ccc3c(c2)OCO3)cc1` (stereo not given), inactive: 11.7%; as for `Cc1cc(Br)ccc1NC(=O)c1ccc(NS(=O)(=O)c2c(C)noc2C)cc1`, active: 63.8%.
The figure for `COc1ccccc1NC(=O)NCc1cccn1Cc1ccccc1` is inactive: -3.78%.
As for `CCCC1=Nc2cc(C(=O)NCCc3ccccc3)ccc2Sc2ccc(C)cc21`, the activation is inactive: -0.374%.
Take `CCOc1ccc(NC(=O)/C=C\C(=O)N(c2ccc(C(C)C)cc2)C(C(=O)NCc2ccco2)c2ccc(F)cc2)cc1` (stereo not given): the activation is inactive: -11.5%.
The figure for `COc1ccc(-c2cnn3c(C)cc(C)nc23)cc1OC` is inactive: -10.4%.
As for `CCOc1ccc(-c2nc(SCC(=O)NC3CCCC3)c(-c3ccccc3)[nH]2)cc1OC`, the figure is inactive: -26.5%; as for `COc1cccc(-c2nc(SCC(=O)NC3CCCC3)c(-c3ccccc3)[nH]2)c1`, inactive: -19.1%.
As for `COc1ccc(NC(=O)Cn2cnc3ccc(S(=O)(=O)N4CCC(C)CC4)cc3c2=O)cc1OC`, the activation is active: 113%.
With `CCOc1ccc(CCNC(=O)CSc2cc(=O)n(C)c3cc(Cl)ccc23)cc1OCC`, the activation was inactive: -1.62%.
The figure for `Cc1ccc(-c2noc(CCCC(=O)NCc3ccco3)n2)cc1` is inactive: 10.9%.
On to `O=C(CSc1nc(-c2cccs2)nc2cc(=O)[nH]n12)Nc1ccccc1F`, for which the activation was inactive: 20%.
The figure for `CSc1ccc(CCNC(=O)CN2C(=O)c3cccnc3Oc3ccc(Cl)cc32)cc1` is inactive: -5.53%; for `CCOc1ccc(CCNC(=O)CCc2c(C)nc3cc(-c4ccccc4OC)nn3c2C)cc1` it is inactive: -9.91%.
`CCCCn1c(NCc2cc(Cl)ccc2O)nc2ccccc21`: the activation was active: 102%.
The figure for `Nc1c(-c2nc(-c3ccc4c(c3)OCO4)cs2)c2ccccn2c1C(=O)c1ccccc1` is inactive: 17.3%; for `COc1cc(C(=O)N2CCc3c([nH]c4ccccc34)C2c2ccc(C)cc2)cc(OC)c1OC` (stereo not given) it is inactive: -31.4%.
The figure for `CCC(=O)N1CCc2cc(S(=O)(=O)NC(Cc3ccccc3)C(=O)Nc3cccc(OC)c3)ccc21` (stereo not given) is inactive: -2.35%.
As for `Cc1cccc(N(C)c2ccc3cc(S(=O)(=O)N4CCCC4)ccc3n2)c1`, the figure is inactive: -14.5%; as for `Cc1ccc2c(c1)c(N1CCCC1=O)c(C(=O)Nc1ccc(F)cc1F)n2C`, inactive: 2.29%.
As for `O=C(C1CCCN(S(=O)(=O)c2cccc3nsnc23)C1)N1CCN(c2ccccc2Cl)CC1` (stereo not given), the activation was inactive: -3.32%.

(Values after PubChem BioAssay AID1346428 (National Center for Advancing Translational Sciences (NCATS), 2018).)
